{"source": "the supplement of paper PMC3334620", "note": "The full ranking holds about 33,000 sequences; the median of “E-score (-0.5 to 0.5)” is about -0.043, and the highest 2% start at about 0.37. The list shows a part of the results."}
{"biological_target": "T1, Upc2 (UniProt Q12151)", "T1 sequence": "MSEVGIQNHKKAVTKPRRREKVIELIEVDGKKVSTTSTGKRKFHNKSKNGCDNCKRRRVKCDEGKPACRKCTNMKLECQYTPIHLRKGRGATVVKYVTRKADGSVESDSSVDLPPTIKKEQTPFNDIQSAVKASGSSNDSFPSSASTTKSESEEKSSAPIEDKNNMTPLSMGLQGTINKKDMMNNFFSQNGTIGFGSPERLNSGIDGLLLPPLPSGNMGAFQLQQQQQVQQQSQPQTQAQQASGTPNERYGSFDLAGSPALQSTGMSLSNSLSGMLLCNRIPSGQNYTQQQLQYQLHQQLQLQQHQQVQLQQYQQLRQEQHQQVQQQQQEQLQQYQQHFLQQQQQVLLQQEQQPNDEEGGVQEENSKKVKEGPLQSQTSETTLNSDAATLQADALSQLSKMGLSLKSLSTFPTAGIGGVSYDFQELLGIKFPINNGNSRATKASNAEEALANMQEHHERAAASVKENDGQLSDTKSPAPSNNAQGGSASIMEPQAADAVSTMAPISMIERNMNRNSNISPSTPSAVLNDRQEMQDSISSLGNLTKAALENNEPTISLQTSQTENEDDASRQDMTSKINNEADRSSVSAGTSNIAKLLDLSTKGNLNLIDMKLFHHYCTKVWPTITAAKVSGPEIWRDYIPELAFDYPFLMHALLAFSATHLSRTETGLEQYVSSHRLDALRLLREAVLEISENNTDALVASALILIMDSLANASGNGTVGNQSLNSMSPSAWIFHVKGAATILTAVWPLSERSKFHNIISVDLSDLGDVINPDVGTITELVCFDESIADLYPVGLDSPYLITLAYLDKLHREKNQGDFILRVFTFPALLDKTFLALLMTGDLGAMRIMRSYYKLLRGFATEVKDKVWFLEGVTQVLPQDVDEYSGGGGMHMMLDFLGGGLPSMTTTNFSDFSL", "experiment": "PBM E-score (8-mer binding enrichment) (E-score (-0.5 to 0.5)); higher = stronger / more preferred TF binding; most listed sequences are background and not binding sites", "settings": "protein concentration: 200 nM; construct: GST-full length", "outline": "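For each ungapped eight-base word taken together with its reverse complement, the Universal PBM Analysis Suite assigned an E-score. Binding data came from GST-tagged yeast transcription factors, applied at about 100-200 nM, on universal all-10-mer Agilent arrays made double-stranded by primer extension. Fluorescent anti-GST marked bound protein, and scans were normalised with masliner.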"}
{"sequence": "ACGATCAT", "PBM E-score": 0.3}
{"sequence": "GGTACGAC", "PBM E-score": 0.475}
{"sequence": "CATCCCAA", "PBM E-score": -0.182}
{"sequence": "CAGACAGA", "PBM E-score": -0.125}
{"sequence": "AGCCCAAT", "PBM E-score": -0.0729}
{"sequence": "CCACTGGG", "PBM E-score": -0.293}
{"sequence": "CCTTTGTA", "PBM E-score": -0.134}
{"sequence": "AGGCAATC", "PBM E-score": -0.118}
{"sequence": "ACTTTTCA", "PBM E-score": -0.0685}
{"sequence": "GTCGGCAC", "PBM E-score": -0.162}
{"sequence": "ACGAATGC", "PBM E-score": 0.285}
{"sequence": "AAGTACGT", "PBM E-score": 0.154}
{"sequence": "CGGGATCA", "PBM E-score": -0.0211}
{"sequence": "ATCGCTTG", "PBM E-score": 0.0802}
{"sequence": "TATGGAAA", "PBM E-score": 0.039}
{"sequence": "CGGACATC", "PBM E-score": -0.0586}
{"sequence": "CGCCGAAA", "PBM E-score": 0.0504}
{"sequence": "CGCGGACC", "PBM E-score": -0.165}
{"sequence": "AGTGGATC", "PBM E-score": -0.0691}
{"sequence": "ATATGGCG", "PBM E-score": 0.0195}
{"sequence": "GGTCAAGA", "PBM E-score": -0.293}
{"sequence": "CAGGGTAA", "PBM E-score": -0.14}
{"sequence": "CCTACTAG", "PBM E-score": 0.0192}
{"sequence": "CAGGATCA", "PBM E-score": -0.152}
{"sequence": "AGCACACG", "PBM E-score": -0.00629}
{"sequence": "AAAATAAC", "PBM E-score": -0.00089}
{"sequence": "CACGTGAA", "PBM E-score": 0.148}
{"sequence": "ACCTACAT", "PBM E-score": -0.0971}
{"sequence": "CGCAAGAG", "PBM E-score": -0.107}
{"sequence": "GGGGCTAC", "PBM E-score": 0.00857}
{"sequence": "ACGGTACT", "PBM E-score": 0.0352}
{"sequence": "GGATAGAC", "PBM E-score": -0.0704}
{"sequence": "AACATGAT", "PBM E-score": -0.106}
{"sequence": "CACGAACC", "PBM E-score": 0.101}
{"sequence": "AAGCGATC", "PBM E-score": 0.228}
{"sequence": "TAATCCTA", "PBM E-score": -0.0162}
{"sequence": "AAACACAC", "PBM E-score": 0.118}
{"sequence": "AAAACCCG", "PBM E-score": 0.0883}
{"sequence": "CTATTCAC", "PBM E-score": -0.0816}
{"sequence": "AAGAGTGT", "PBM E-score": -0.123}
{"sequence": "CAAGAAGA", "PBM E-score": -0.326}
{"sequence": "GGGTTAGA", "PBM E-score": -0.23}
{"sequence": "CATCAACG", "PBM E-score": 0.0394}
{"sequence": "ACATCACT", "PBM E-score": 0.0925}
{"sequence": "GATAGGAC", "PBM E-score": -0.289}
{"sequence": "TGGTACCA", "PBM E-score": -0.203}
{"sequence": "ACGACATG", "PBM E-score": 0.336}
{"sequence": "CAGCAATC", "PBM E-score": -0.0209}
{"sequence": "GCTGGGGA", "PBM E-score": -0.149}
{"sequence": "CTCGCACA", "PBM E-score": 0.27}
{"sequence": "CTGACAGC", "PBM E-score": -0.144}
{"sequence": "GCATTACA", "PBM E-score": -0.143}
{"sequence": "CAAAAACC", "PBM E-score": 0.0158}
{"sequence": "AACTAAGT", "PBM E-score": -0.0887}
{"sequence": "CCCTGCAG", "PBM E-score": -0.163}
{"sequence": "CCTTCACG", "PBM E-score": 0.0487}
{"sequence": "GGCCAAGA", "PBM E-score": -0.29}
{"sequence": "CGTGAGAG", "PBM E-score": -0.333}
{"sequence": "CCAAAGTC", "PBM E-score": -0.225}
{"sequence": "ATGTGTCC", "PBM E-score": -0.136}
{"sequence": "GGCTGGAA", "PBM E-score": -0.231}
{"sequence": "CGTTTTGC", "PBM E-score": 0.144}
{"sequence": "ACGAGTTG", "PBM E-score": 0.354}
{"sequence": "ACGCGTTA", "PBM E-score": 0.14}
{"sequence": "GTTTATCA", "PBM E-score": 0.197}
{"sequence": "AGAGACTG", "PBM E-score": -0.131}
{"sequence": "AGTTAGAT", "PBM E-score": -0.207}
{"sequence": "ATCACCGC", "PBM E-score": 0.0954}
{"sequence": "ACCGAGCA", "PBM E-score": 0.16}
{"sequence": "ACTCGCCA", "PBM E-score": -0.0888}
{"sequence": "GGAATGCA", "PBM E-score": -0.0265}
{"sequence": "CTTAGAAA", "PBM E-score": -0.115}
{"sequence": "CTGCTCGC", "PBM E-score": 0.0814}
{"sequence": "CTGGATAC", "PBM E-score": 0.145}
{"sequence": "CGCGCGGA", "PBM E-score": 0.0555}
{"sequence": "CTCGCCTC", "PBM E-score": -0.219}
{"sequence": "AACCTCGG", "PBM E-score": 0.0542}
{"sequence": "GGTTAGAC", "PBM E-score": -0.124}
{"sequence": "GGGCGAAA", "PBM E-score": -0.0449}
{"sequence": "ATTCTGCC", "PBM E-score": -0.241}
{"sequence": "CAGAGACC", "PBM E-score": -0.16}
{"sequence": "AATAGAAG", "PBM E-score": -0.0451}
{"sequence": "TAGCAGGA", "PBM E-score": -0.26}
{"sequence": "AAGTTCTG", "PBM E-score": -0.106}
{"sequence": "ACGTAATA", "PBM E-score": 0.146}
{"sequence": "GGCCCTTA", "PBM E-score": -0.0472}
